The text below walks through data of paper PMC7819943, “Rice protein-binding microarrays: a tool to detect cis-acting elements near promoter regions in rice”.

The list shows a part of the results.

The experiment has as its target T1, OsWOX13 (Oryza sativa, UniProt Q5QMM3 1-267).
T1 sequence: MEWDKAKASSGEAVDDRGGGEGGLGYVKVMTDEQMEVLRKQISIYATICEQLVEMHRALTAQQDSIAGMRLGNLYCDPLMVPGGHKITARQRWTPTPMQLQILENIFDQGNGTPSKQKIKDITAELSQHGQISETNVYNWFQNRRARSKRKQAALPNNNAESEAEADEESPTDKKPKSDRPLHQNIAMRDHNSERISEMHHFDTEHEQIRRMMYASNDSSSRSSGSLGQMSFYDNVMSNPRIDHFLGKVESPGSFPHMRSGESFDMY
Description: protein-binding microarray (RPBM); PBS, 2% BSA, 51.3 ng/ul salmon testes DNA, 50 uM zinc acetate, 200 nM TF, 25 C, 1 h; high values mean tight binding. Particulars: protein: recombinant; tags: N-terminal polyhistidine and DsRed monomer fusion (pET32a); label: CyDye5-dUTP incorporated in the synthesized complementary strand; 3' TTTTT single-stranded linker to array surface; dsDNA, one strand shown. In short, it runs like this:
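For the binding signal, per-feature fluorescence intensity was read in arbitrary units on an Axon 4000B scanner. Before scanning, a 2% BSA-blocked custom Agilent array made double-stranded with Cy5-dUTP was washed after 1 h at 25 °C with 200 nM protein and 50 µM zinc acetate. The proteins were Ni–NTA-purified transcription factors with N-terminal polyhistidine and DsRed fusions, expressed in E. coli BL21-CodonPlus.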
With “ACTTAATTGGATAGATAAATTTAAGTTATATTTAATATGGCGGAGTCACCTAGTGCAG”, the binding signal is 64900 fluorescence intensity (a.u.).
Consider “TAGAATTACAATTATTTTATGATGGAGGTAGTATTTGCTCCGGAGTCACCTAGTGCAG”, for which the binding signal was 6030 fluorescence intensity (a.u.).
As for “AAAAGATTTGTCTCGTAAATTAGTCGCAATCTACACAATTCGGAGTCACCTAGTGCAG”, the figure is 9060 fluorescence intensity (a.u.); as for “AAAATTATATATAATATATATACAATACTTGGGCCAAAATCGGAGTCACCTAGTGCAG”, 3300 fluorescence intensity (a.u.); as for “CTCCAAATTAATTTCACTTATCTAGATGTAAACAATTGATCGGAGTCACCTAGTGCAG”, 12100 fluorescence intensity (a.u.).
As for “TACAAATAGACTTGAATAAATGTTTATCTATTTTGTGTTGCGGAGTCACCTAGTGCAG”, the figure is 16800 fluorescence intensity (a.u.); as for “CTAAACTAACTGAGTGCTCCCTTAAATCTATCTAGAGTCACGGAGTCACCTAGTGCAG”, 7380 fluorescence intensity (a.u.).
The result for “ATAATTAGTACCTTATAATAAGTAGCACAATCTTCGTGTTCGGAGTCACCTAGTGCAG” reads 7900 fluorescence intensity (a.u.); that for “ATTACAATAGCTTGATTAGGGGAAACTAGAGAGCTCTCCCCGGAGTCACCTAGTGCAG”, 9280 fluorescence intensity (a.u.).
For the sequence “TTACATAATTATCATTTATTATATTTTAACTTAATTTATCCGGAGTCACCTAGTGCAG”, the binding signal is 19500 fluorescence intensity (a.u.).
As for “ACACAAAACAAATACTTAATTAAATCATTGTTGTTTACTTCGGAGTCACCTAGTGCAG”, the figure is 5150 fluorescence intensity (a.u.); as for “GTTTATAATTTGAGTAGACACATCCCATGTAGCATTTTGACGGAGTCACCTAGTGCAG”, 7120 fluorescence intensity (a.u.); as for “ACATATAAATTGGATGGCCACCCTCTTCTTCTTCCTAGTCCGGAGTCACCTAGTGCAG”, 26800 fluorescence intensity (a.u.).
The result for “GTCCTAATAAATGATTATGACTACTTCATTAGTACTCCAGCGGAGTCACCTAGTGCAG” reads 23300 fluorescence intensity (a.u.); that for “CCGTTACAATTTATACTTATCAATTTAGAGGTTTGTTCTACGGAGTCACCTAGTGCAG”, 6390 fluorescence intensity (a.u.).
As for “GTGCGTCGATTTATATTAATTAAGAAGTAAGTCATGGCAGCGGAGTCACCTAGTGCAG”, the figure is 4170 fluorescence intensity (a.u.); as for “TTCGAGATTGAATTTAGAGTGCAAAGTATTGTAGGTCTGTCGGAGTCACCTAGTGCAG”, 22000 fluorescence intensity (a.u.); as for “GTTAAATAAATCAAATTAAAACACCAGACCTCCAAACTAGCGGAGTCACCTAGTGCAG”, 3560 fluorescence intensity (a.u.).
As to “GGCTTAATTAGGTGGAGATTGGAGATCAATAAGTGGAATTCGGAGTCACCTAGTGCAG”, the binding signal was 44000 fluorescence intensity (a.u.).
The result for “GCTGATTATTAATCCTATGAATTTCCTAGCTTAGCTGATCCGGAGTCACCTAGTGCAG” reads 49800 fluorescence intensity (a.u.).
The result for “GGAATATCCAAGCTTAATTGCCAGCATAATAGACTAGCATCGGAGTCACCTAGTGCAG” reads 7810 fluorescence intensity (a.u.).
The result for “GTTATCAGGATTGAGCACCAGATTGATGGTATGTGATGATCGGAGTCACCTAGTGCAG” reads 25800 fluorescence intensity (a.u.).
For “TTTAGATTGCTAAACACACATGTATATATAAGTTTTATTTCGGAGTCACCTAGTGCAG”, the binding signal was 5900 fluorescence intensity (a.u.).
The result for “AAATTAACAGGTTTGTTCAACGGTTCAACCAACATCTGCCCGGAGTCACCTAGTGCAG” reads 11000 fluorescence intensity (a.u.).
The result for “AGCTCCTAATTTCATTCTTACCCTGAAAGTAATCTAGCTCCGGAGTCACCTAGTGCAG” reads 3750 fluorescence intensity (a.u.); that for “ACAATGGGCTTGATTACAATAGAATATCATTCAATATAGCCGGAGTCACCTAGTGCAG”, 4210 fluorescence intensity (a.u.); that for “CAAATCAAGAAAATTTTCAATAACATTTCAACTATTGTAACGGAGTCACCTAGTGCAG”, 3290 fluorescence intensity (a.u.).
As for “GATTATAATGATCATTATTTGCTTTGTGAATGTGTAAAAGCGGAGTCACCTAGTGCAG”, the figure is 7010 fluorescence intensity (a.u.); as for “CTCTTTAGACAGAAAACTATAAAGTGTTCCATTCACCTAACGGAGTCACCTAGTGCAG”, 4040 fluorescence intensity (a.u.); as for “TTAATTAATCTATCTAATCAGATTGATTAATGCCTCCCTCCGGAGTCACCTAGTGCAG”, 37800 fluorescence intensity (a.u.).
For “CACTAAATTACCCTCGCCATTTTGACGCCTCTGTCGTGGGCGGAGTCACCTAGTGCAG”, the binding signal is 18700 fluorescence intensity (a.u.).
The result for “TATGTAATTATTGCTAGTGGATGATGATGTGGCATGGTTGCGGAGTCACCTAGTGCAG” reads 14700 fluorescence intensity (a.u.).
The result for “AGTACGGACTAATTAAATCCCGTGGAATTTTCAAGTCAAACGGAGTCACCTAGTGCAG” reads 3400 fluorescence intensity (a.u.).
On to “CATCAAATTTAAACAGACAGATGATTCAGTTTATAATGAACGGAGTCACCTAGTGCAG”, for which the binding signal is 21900 fluorescence intensity (a.u.).
The result for “ATACATAATTATTTAAGTATCTTTTAATAAAACGAACGGTCGGAGTCACCTAGTGCAG” reads 22200 fluorescence intensity (a.u.).
As for “GCTGTACTGTAATTACATCTGTCAAACTTTTAGGAGAAAACGGAGTCACCTAGTGCAG”, the figure is 20400 fluorescence intensity (a.u.); as for “CCATTTCTTGCTGATGATTGATGATGAACATTTCTAATAGCGGAGTCACCTAGTGCAG”, 27400 fluorescence intensity (a.u.).
As for “AGTTGTACACCAATCACCTGAATACTGTAATTCCTGACTTCGGAGTCACCTAGTGCAG”, the figure is 5500 fluorescence intensity (a.u.); as for “TCATGAATTCTTCTGTTTTGATTGGATGTTAAGTTGTGTTCGGAGTCACCTAGTGCAG”, 13100 fluorescence intensity (a.u.).
Take “ATCACATAAATTTGCATGTTCCCTTATCTTAGATGAAATTCGGAGTCACCTAGTGCAG”: the binding signal was 4770 fluorescence intensity (a.u.).
As for “AAACAGATTATAGATTTAAACGCTCCTAGCACTATGCCACCGGAGTCACCTAGTGCAG”, the figure is 11700 fluorescence intensity (a.u.).
Regarding “ATTAATTAAGAGTTCAATTAGCTGGGCTGTCATGGAATGGCGGAGTCACCTAGTGCAG”, the binding signal is 30700 fluorescence intensity (a.u.).
